Experimental data: the supplement of paper PMC11417369
± gives the standard deviation of the averaged measurements. Some of the results follow.

Test system: PfAP2-LT AP2 domain (GST-tagged)
Test: gcPBM binding intensity (ln(normalized median fluorescence intensity)); higher = stronger DNA binding
Procedure, shortened: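 After 1 h on an Agilent 4 × 180k array of primer-extended double-stranded 36-bp intergenic genomic probes and negative controls, bound GST-tagged P. falciparum DNA-binding domains were detected with Alexa488 anti-GST antibody and scanned at 488 nm. The domains had been expressed in E. coli, and binding took place in 1× PBS with 1% milk, 0.2 mg/ml BSA, 0.5% salmon testes DNA and 0.03% Triton X-100. Binding intensity is the highest Masliner-normalised natural-log median intensity across replicate spots of either probe orientation.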

Row | Sequence | gcPBM binding intensity (ln)
1 | TTAATAATTAATTATAGTACACATTTATATTAATAA [XGTACX_site190] | 8.34 ± 0.46
2 | ATTATAAGAAGGGGGGGTACATAAATATAAATGTAT [XGTACX_site5624] | 10 ± 0.31
3 | TTTAATTTTCGGTGTGCACACAACTATGAGTTTTTA [CACACA_site3034] | 9.28 ± 0.33
4 | AATTGAATAAATTAAACATGCACAGATGTTCTATTT [TGCATGCA_site692] | 8.68 ± 0.42
5 | TACTGGTATCGATATAGTACATATAATATTATGTTA [XGTACX_site7490] | 8.84 ± 0.36
6 | AGGATTAAAAAAACATGTACGTATTTAAATATATTT [XGTACX_site8774] | 8.79 ± 0.49
7 | TTTTTTTTTTTTTTTTTTTTTTTTTTTTTTTTTTTT [CACACA_negctrl_site104] | 8.74 ± 0.13
8 | GTATAAAAAAATAAAAGTACAAAAAAAAAAGACTGA [XGTACX_site186] | 8.94 ± 0.57
9 | AAATAAAAAATATGAACACACATATATAACAAAATA [CACACA_site261] | 9.11 ± 0.52
10 | CATATACTTCTGTGCACACGAATATTTTTCTTCTTC [CACACA_site1407] | 9.35 ± 0.4
11 | TGTTGTCCTAATTCTACACACAATGGTTTATTAAAA [CACACA_site2648] | 8.91 ± 0.38
12 | TATACTCATATTTTTACACACATATTTTTTCATATA [CACACA_site5412] | 9.05 ± 0.5
13 | TTTTAACGTAAAACATTGATGATATAAAAAATAGGA [GTGCAC_negctrl_site540] | 8.44 ± 0.45
14 | TTAAAATATACATAAACACACACAAAACGTTTAAGA [CACACA_site8267] | 9.24 ± 0.38
15 | AATTTAAAATATATAGTACACACGTGAACACAAATA [CACACA_site416] | 8.9 ± 0.43
16 | TTTTTTTTTTTTTTTTTTTTCACATGTGTGGAAAAA [GTGCAC_negctrl_site352] | 8.28 ± 0.29
17 | AGGATATATAAGTATACACACATATTTATATTTATA [CACACA_site6239] | 8.87 ± 0.45
18 | TGTATTTATAATAAAACACACATTTTTAATGTGCTC [CACACA_site4908] | 8.78 ± 0.57
19 | TAACAATAACTTTATACACACATAATATATATATAT [CACACA_site3543] | 8.98 ± 0.32
20 | AAAAAAAAAAAAAACACACACACACCCATAAATATA [CACACA_site151] | 10.2 ± 0.15
21 | TTTGTGTTTATAAATTGTACAAAGGTGCAAGAAGAA [XGTACX_site2159] | 8.84 ± 0.45
22 | ATATGATCATAAAACACACACACAAAAAAAAAAAAA [CACACA_site1806] | 9.62 ± 0.45
23 | AAAAAAAAAAAACACACACACAATAGTATATAAATC [CACACA_site956] | 9.8 ± 0.4

Row | Sequence | gcPBM binding intensity (ln)
24 | TTCAAGCCCTTCTGCTTACACACAGTAATTATTGTG [CACACA_site2952] | 9.31 ± 0.25
25 | TATTTTTATTATATGGTGCATATATACATACATATA | 8.72 ± 0.4
26 | AAGTGCATATTATTCACACATAATAATTGTATACCT [CACACA_site5965] | 8.9 ± 0.4
27 | TGTAAATTATAACGTGCACACATATTTAAAATGAAA [CACACA_site8915] | 9.01 ± 0.36
28 | ATATAGAAAATGCATACACACTTTATAAATATATTT [CACACA_site6553] | 8.87 ± 0.45
29 | AGATATTTATTGAGTGCATGTTATAAAGGGAAAAAA [TGCATGCA_site88] | 8.61 ± 0.42
30 | AATTAGATGGATAAATGTACATAATGTGAATATATT [XGTACX_site86] | 8.98 ± 0.42
31 | ATCCACTTTTTGAAGACACACACAAAAAAAAAAAAA [CACACA_site8818] | 8.95 ± 0.4
32 | TAAAAATAATTTGCATGTACATAGGTCGATGTATTT [XGTACX_site1357] | 8.87 ± 0.4
33 | TAATGAGGAAATACAGCACACGTTATTACACTTTTC [CACACA_site5399] | 9.04 ± 0.38
34 | AATAATGTTATAAATTGTACGTGTATTATTCATTAC [XGTACX_site894] | 8.96 ± 0.43
35 | AAATTGGTTCATCAATGTACATGTAAAATAAATCAA [XGTACX_site4795] | 8.81 ± 0.44
36 | TATATTTATCCATACAAGAAAAAAAAAAAAAAAATA [CACACA_negctrl_site1328] | 8.36 ± 0.42
37 | TACACCCACCCACATACACACACATACACATATATA [CACACA_site8503] | 10.1 ± 0.21
38 | AAAAAAAAAAATATATTAAAATAAAAAATATTAACA [GTGCAC_negctrl_site13] | 8.3 ± 0.61
39 | CCACTTAAAATAAAAAGTACATACAGGTGTTATACA [XGTACX_site8124] | 8.68 ± 0.39
40 | AGCATATTATTTTAGGTGCACTTGAAATGTGTTAAC | 8.86 ± 0.38
41 | TTTAAATAAAATATTACACACTTAGAAAGATATATA [CACACA_site7684] | 8.46 ± 0.52
42 | TTTTTTTTTTATTGTACATGCAAAAAATTCCACACA [TGCATGCA_site279] | 8.58 ± 0.47
43 | CAAATAAAAACAAAACGTACGAATAAATTATTGTTA [XGTACX_site5136] | 9 ± 0.44
44 | ATATCGTTATTTTTATGTACTAAAATATTTAATTAT [XGTACX_site3516] | 8.71 ± 0.49
45 | TATTTGATCTAAAGAGCATGCAAAAACGAACAAGAT [TGCATGCA_site136] | 9.21 ± 0.33
46 | ATATATAAAAATTAGGTGCATTAAATTAAAATATAT | 8.61 ± 0.47

Row | Sequence | gcPBM binding intensity (ln)
47 | CACATATAAATATTAACACACATAATGAATTATATA [CACACA_site2741] | 8.93 ± 0.37
48 | TTTATATAAATTTTTTGTACACAAGTAAAAACGCGT [XGTACX_site2459] | 8.54 ± 0.53
49 | ACACAAATAAATATAACATATATATTATATTATATT [CACACA_negctrl_site710] | 8.8 ± 0.45
50 | TCAATATTAAATTATTGTACATGTATGTATATATAT [XGTACX_site3861] | 8.76 ± 0.45
51 | TTTTTTTTTTTTTTTTTACACACTTTATTCAAACAA [CACACA_site9360] | 8.44 ± 0.43
52 | ATAAAATATATATATATAAAAATAAATACATAAATA [GTGCAC_negctrl_site157] | 8.82 ± 0.46
53 | AATATAAAACTTTAGAGTACTTATCATTAAAATATA [XGTACX_site4509] | 8.36 ± 0.6
54 | TTAAAAGTAAGCAAAGTGCATATAACAAAAGTAAAG | 8.96 ± 0.48
55 | TAAAATAAAAAAGTAGTACACACTTCACGATATTTT [CACACA_site3896] | 8.82 ± 0.43
56 | ATTAATAATGAAAAAAAACACACGGTACATTCAAAG [CACACA_site1302] | 9.03 ± 0.52
57 | TATATAAGAACTTTTACACACATGAAAATGTAGATA [CACACA_site7711] | 8.84 ± 0.39
58 | TATATATATATATATACACACATACAGATATATATT [CACACA_site4629] | 9.5 ± 0.38
59 | ATATACACATATACATGTACAAATATATATACACAT [XGTACX_site2986] | 9.09 ± 0.39
60 | CACTAAAAGAAACACACACACACACCCATATATATA [CACACA_site4151] | 10.2 ± 0.23
61 | TTACTATTATTATTTTTTATTTTTATTTTATTTATT [TGCATGCA_negctrl_site269] | 8.61 ± 0.64
62 | TTGTAAGAAAGACACACACACACATATAAATATGTA [CACACA_site6516] | 9.81 ± 0.23
63 | TATTTAAAATAATGTGCAAAAGAATAAATAAATAAA [TGCATGCA_negctrl_site194] | 8.84 ± 0.52
64 | TTCATTTTCATATATTGTACAAAATTTTATAAGGTT [XGTACX_site4522] | 8.57 ± 0.42
65 | ATATATATATATAATACACACTAAAGTAACATAATA [CACACA_site5580] | 9.04 ± 0.3
66 | TGTATATAATCGAGTGCACACACAAAAAAAAAGTGA [CACACA_site8417] | 9.44 ± 0.47
67 | TTCATGTCCTATTAATGTACTCTACACACATATAAG [XGTACX_site899] | 9.08 ± 0.45
68 | AAAAAAAAAAAAAAAACACACACATATATATATATA [CACACA_site8571] | 9.72 ± 0.29
69 | ATTTTATATACACTTTGTACTTATTTTATTCTTCTT [XGTACX_site4200] | 9.06 ± 0.56

Row | Sequence | gcPBM binding intensity (ln)
70 | TTTATTTATTTTTGTTGTACACTTGTATATATTATT [XGTACX_site6486] | 9.1 ± 0.47
71 | TACGCAACCAAAAGTTGTACTAATTTTTTTTTTTTG [XGTACX_site7432] | 8.54 ± 0.47
72 | GGAACAAATAATATCACACATATATATATATATATA [CACACA_site5670] | 10.2 ± 0.41
73 | ATATATTTTATACATACACACATATAAATATTTTTT [CACACA_site7780] | 8.88 ± 0.43
74 | TAATAAATATATTGAAGTACTTATAAAAAGCAATAT [XGTACX_site6262] | 8.82 ± 0.45
75 | TTTTTTAATACATATGCATGTTCAAGTACGAAAAAA [TGCATGCA_site641] | 8.33 ± 0.37
76 | TACGGGAAAGATAAGAAACACACGGAAAATTAGACG [CACACA_site1661] | 9.12 ± 0.55
77 | TATTAAACTTGACACACACACACACGCATATATAAA [CACACA_site6496] | 10.1 ± 0.14
78 | ATTTCTATATATTGTGCATGCCATTACACCAAATAT [TGCATGCA_site813] | 9.15 ± 0.43
79 | AGAATTTAGAAACAATGTTGTATATGTAATACCTTT [XGTACX_negctrl_site149] | 8.71 ± 0.4
80 | TATATATATAAAAAAAGTACGTATTTAATAAAAATA [XGTACX_site4992] | 8.78 ± 0.46
81 | GATATTATGTGTTTGGTATTTCGATCTTGTCAGGAC [CACACA_negctrl_site426] | 8.93 ± 0.41
82 | AAAAAAAAAAAAAAAACACACAAACAAATGAATAAA [CACACA_site5769] | 8.89 ± 0.5
83 | AATATACAAATTACAAGTACAAATCAATATTATATG [XGTACX_site7521] | 8.9 ± 0.42
84 | TCATTTTACAGATGTGCATGTGAATCAATCTATTTA [TGCATGCA_site787] | 8.7 ± 0.39
85 | GTATATAATTTATATTGTACGCATATTATTATCATT [XGTACX_site7277] | 8.84 ± 0.35
86 | TGTAGTTTTTATTTATGTACGCATAACATAATTTAA [XGTACX_site104] | 8.71 ± 0.45
87 | TATATATATAAATACACACACACATATATATATATA [CACACA_site4585] | 9.86 ± 0.18
88 | ATCATACCTTTTAATGTACACACATTTCTTTTTTGT [CACACA_site8198] | 9.56 ± 0.48
89 | TATATAAATAAAAAAAGTACATTACTTTTTAATTTA [XGTACX_site285] | 8.27 ± 0.4
